{"source": "ChEMBL document CHEMBL5606460", "about": "“ASAP - DENV-2 NS2B-NS3 protease fluorescence single point” (2024)", "molecular_target": "Genome polyprotein (dengue virus type 2) (UniProt P29990)", "key": {"[1]": {"settings": "Thailand/16681/1984, Concentration 25.0 uM, Number of replicates 1.0"}}, "note": "“And” between values parts separate entries of the source, which are not always exact repeats. Equal entries are not always repeated. Among all 2,000 compounds or so, about 110 (5.5%) showed an effect of 50% or more. Some of the results follow.", "data": [{"smiles": "CCn1ccnc(N[C@@H](Cc2c[nH]c3ccccc23)C(=O)N2CCCCC2)c1=O", "values": [{"measurement": "inhibition", "setting": "Thailand/16681/1984, Concentration 49.5 uM, Number of replicates 2.0, Standard deviation 1.8610654084662064 %", "value": -3.98, "unit": "%"}, {"measurement": "inhibition", "setting": "Thailand/16681/1984, Concentration 99.01 uM, Number of replicates 2.0, Standard deviation 1.4549886152586564 %", "value": -2.19, "unit": "%"}, {"measurement": "inhibition", "setting": "Thailand/16681/1984, Concentration 198.0 uM, Number of replicates 2.0, Standard deviation 1.4588150854881121 %", "value": -1.56, "unit": "%"}]}, {"smiles": "Cc1cc(CO)c2cccc(Cc3ccccc3NC(=O)[C@@H](N)c3ccsc3)c2n1", "values": [{"measurement": "inhibition", "setting": "Thailand/16681/1984, Concentration 49.95 uM, Number of replicates 2.0, Standard deviation 1.804981271502336 %", "value": 4.91, "unit": "%"}, {"measurement": "inhibition", "setting": "Thailand/16681/1984, Concentration 99.9 uM, Number of replicates 2.0, Standard deviation 1.1569323403231935 %", "value": 9.24, "unit": "%"}]}, {"smiles": "Cc1cccc(CN2CCC(c3c[nH]c4cccnc34)CC2)c1", "values": [{"measurement": "inhibition", "setting": "Thailand/16681/1984, Concentration 49.5 uM, Number of replicates 2.0, Standard deviation 4.044098684902046 %", "value": -1.88, "unit": "%"}, {"measurement": "inhibition", "setting": "Thailand/16681/1984, Concentration 99.01 uM, Number of replicates 2.0, Standard deviation 4.567031493116113 %", "value": -1.06, "unit": "%"}, {"measurement": "inhibition", "setting": "Thailand/16681/1984, Concentration 198.0 uM, Number of replicates 2.0, Standard deviation 4.96530454444078 %", "value": -1.22, "unit": "%"}]}, {"smiles": "CN(C)C(=O)N1CCN(C(=O)C2CCN(c3ccc(C=O)cc3)CC2)CC1", "values": [{"measurement": "inhibition", "setting": "[1]", "value": 12.6, "unit": "%"}]}, {"smiles": "N#Cc1cccc(-c2nc3c(C(=O)Nc4ccc5c(c4)CNC5)cc(Cl)cc3[nH]2)c1", "values": [{"measurement": "inhibition", "setting": "Thailand/16681/1984, Concentration 99.5 uM, Number of replicates 2.0, Standard deviation 0.0717454001083366 %", "value": 96.4, "unit": "%"}, {"measurement": "inhibition", "setting": "Thailand/16681/1984, Concentration 295.6 uM, Number of replicates 2.0, Standard deviation 0.16315483385791593 %", "value": 93.6, "unit": "%"}]}, {"smiles": "CN(CC[C@H](O)c1cccs1)C(=O)C1CCN(c2ccc(C=O)cc2)CC1", "values": [{"measurement": "inhibition", "setting": "[1]", "value": 16.4, "unit": "%"}]}, {"smiles": "O=Cc1ccc(N2CCC(C(=O)Nc3cc(F)c(Br)c(F)c3)CC2)cc1", "values": [{"measurement": "inhibition", "setting": "[1]", "value": 13.9, "unit": "%"}]}, {"smiles": "O=Cc1ccc(N2CCC(C(=O)NC3CCN(C(=O)C4CC4)CC3)CC2)cc1", "values": [{"measurement": "inhibition", "setting": "[1]", "value": 8.36, "unit": "%"}]}, {"smiles": "CN1CCN(C(=O)C2CCN(c3ccc(C=O)cc3)CC2)[C@H](c2ccccc2)C1", "values": [{"measurement": "inhibition", "setting": "[1]", "value": "11.2% and 11.6%"}]}, {"smiles": "CS(=O)(=O)c1ccc(O)c(NC(=O)C2CCN(c3ccc(C=O)cc3)CC2)c1", "values": [{"measurement": "inhibition", "setting": "[1]", "value": 16, "unit": "%"}]}, {"smiles": "O=C(NCC1(CO)CC1)[C@]1(c2ccc(F)cc2)CCCNC1", "values": [{"measurement": "inhibition", "setting": "Thailand/16681/1984, Concentration 49.5 uM, Number of replicates 2.0, Standard deviation 0.29342256611647827 %", "value": -0.431, "unit": "%"}, {"measurement": "inhibition", "setting": "Thailand/16681/1984, Concentration 99.01 uM, Number of replicates 2.0, Standard deviation 0.5301375801593371 %", "value": 0.116, "unit": "%"}, {"measurement": "inhibition", "setting": "Thailand/16681/1984, Concentration 198.0 uM, Number of replicates 2.0, Standard deviation 0.5056857277475296 %", "value": -0.092, "unit": "%"}]}, {"smiles": "CSCC[C@H](NC(=O)OC(C)(C)C)C(=O)N1CCC[C@H]1C(=O)N1CCNCC1", "values": [{"measurement": "inhibition", "setting": "Thailand/16681/1984, Concentration 49.5 uM, Number of replicates 2.0, Standard deviation 0.18656479510110988 %", "value": -1.01, "unit": "%"}, {"measurement": "inhibition", "setting": "Thailand/16681/1984, Concentration 99.01 uM, Number of replicates 2.0, Standard deviation 0.6673278690655411 %", "value": -1.03, "unit": "%"}, {"measurement": "inhibition", "setting": "Thailand/16681/1984, Concentration 198.0 uM, Number of replicates 2.0, Standard deviation 0.6237960118923063 %", "value": -0.61, "unit": "%"}]}, {"smiles": "Cc1c(Br)cnc(NC(=O)C2CCN(c3ccc(C=O)cc3)CC2)c1[N+](=O)[O-]", "values": [{"measurement": "inhibition", "setting": "[1]", "value": 13.3, "unit": "%"}]}, {"smiles": "O=Cc1ccc(N2CCC(C(=O)N3CCN(c4cccnc4)CC3)CC2)cc1", "values": [{"measurement": "inhibition", "setting": "[1]", "value": 11.7, "unit": "%"}]}, {"smiles": "COc1cc(Cc2cccc(-c3nnn[nH]3)c2)nc(N2CCNCC2)n1", "values": [{"measurement": "inhibition", "setting": "Thailand/16681/1984, Concentration 49.5 uM, Number of replicates 2.0, Standard deviation 0.6269046159245001 %", "value": -0.291, "unit": "%"}, {"measurement": "inhibition", "setting": "Thailand/16681/1984, Concentration 99.01 uM, Number of replicates 2.0, Standard deviation 0.6940172344445191 %", "value": 0.835, "unit": "%"}, {"measurement": "inhibition", "setting": "Thailand/16681/1984, Concentration 198.0 uM, Number of replicates 2.0, Standard deviation 1.0254182414604671 %", "value": 2.12, "unit": "%"}]}, {"smiles": "Cc1cc(CO)c2cccc(C[C@H](NC(=O)Cc3cccc(CN)c3)C(=O)O)c2n1", "values": [{"measurement": "inhibition", "setting": "Thailand/16681/1984, Concentration 49.95 uM, Number of replicates 2.0, Standard deviation 1.182306091825904 %", "value": 3.43, "unit": "%"}, {"measurement": "inhibition", "setting": "Thailand/16681/1984, Concentration 99.9 uM, Number of replicates 2.0, Standard deviation 0.8526118635872534 %", "value": 11.1, "unit": "%"}]}, {"smiles": "CC(C)(CO)NC(=O)c1cc(Cl)cc(NC(=O)c2cccc(Cn3ccnc3)c2)c1", "values": [{"measurement": "inhibition", "setting": "Thailand/16681/1984, Concentration 49.5 uM, Number of replicates 2.0, Standard deviation 2.3942027115429654 %", "value": -1.59, "unit": "%"}, {"measurement": "inhibition", "setting": "Thailand/16681/1984, Concentration 99.01 uM, Number of replicates 2.0, Standard deviation 0.22825569900481307 %", "value": -3.98, "unit": "%"}, {"measurement": "inhibition", "setting": "Thailand/16681/1984, Concentration 198.0 uM, Number of replicates 2.0, Standard deviation 1.4712561186721034 %", "value": -3.84, "unit": "%"}]}, {"smiles": "Cc1cc(CO)c2cccc(CC(=O)Nc3cc(O)[nH]n3)c2n1", "values": [{"measurement": "inhibition", "setting": "Thailand/16681/1984, Concentration 49.95 uM, Number of replicates 2.0, Standard deviation 0.30186854167697036 %", "value": 9.85, "unit": "%"}, {"measurement": "inhibition", "setting": "Thailand/16681/1984, Concentration 99.9 uM, Number of replicates 2.0, Standard deviation 0.4943454438060974 %", "value": 27.1, "unit": "%"}]}, {"smiles": "Cc1cc(CO)c2cccc(Cc3ccccc3NC(=O)c3cc(C(F)F)nn3C)c2n1", "values": [{"measurement": "inhibition", "setting": "Thailand/16681/1984, Concentration 49.95 uM, Number of replicates 2.0, Standard deviation 2.025151603382516 %", "value": 0.062, "unit": "%"}, {"measurement": "inhibition", "setting": "Thailand/16681/1984, Concentration 99.9 uM, Number of replicates 2.0, Standard deviation 0.9360702100715556 %", "value": 3.72, "unit": "%"}]}, {"smiles": "Cc1cc(CO)c2cccc(Cc3ccccc3C(=O)Nc3cc(O)[nH]n3)c2n1", "values": [{"measurement": "inhibition", "setting": "Thailand/16681/1984, Concentration 49.95 uM, Number of replicates 2.0, Standard deviation 1.692425920917871 %", "value": 31.1, "unit": "%"}, {"measurement": "inhibition", "setting": "Thailand/16681/1984, Concentration 99.9 uM, Number of replicates 2.0, Standard deviation 2.178235447788754 %", "value": 49.1, "unit": "%"}]}, {"smiles": "Cc1cc(NCCN(C)C)c2ccccc2n1", "values": [{"measurement": "inhibition", "setting": "Thailand/16681/1984, Concentration 99.9 uM, Number of replicates 2.0, Standard deviation 3.6219696743832435 %", "value": -9.59, "unit": "%"}]}, {"smiles": "O=Cc1ccc(N2CCC(C(=O)N3CCN(CCc4cccs4)CC3)CC2)cc1", "values": [{"measurement": "inhibition", "setting": "[1]", "value": 12.3, "unit": "%"}]}, {"smiles": "O=Cc1ccc(N2CCC(C(=O)Nc3cccc(F)c3[N+](=O)[O-])CC2)cc1", "values": [{"measurement": "inhibition", "setting": "[1]", "value": 17.1, "unit": "%"}]}, {"smiles": "Cc1cc(CO)c2cccc(Cc3ccccc3C(=O)Nc3ccc(C(=O)O)o3)c2n1", "values": [{"measurement": "inhibition", "setting": "Thailand/16681/1984, Concentration 49.95 uM, Number of replicates 2.0, Standard deviation 1.5990008562851066 %", "value": 16.8, "unit": "%"}, {"measurement": "inhibition", "setting": "Thailand/16681/1984, Concentration 99.9 uM, Number of replicates 2.0, Standard deviation 2.1056511568076566 %", "value": 34.4, "unit": "%"}]}, {"smiles": "Cc1cc(CO)c2cccc(NC(=O)C3(C(N)=O)CC3)c2n1", "values": [{"measurement": "inhibition", "setting": "Thailand/16681/1984, Concentration 49.95 uM, Number of replicates 2.0, Standard deviation 2.1727408474420855 %", "value": 9.75, "unit": "%"}, {"measurement": "inhibition", "setting": "Thailand/16681/1984, Concentration 99.9 uM, Number of replicates 2.0, Standard deviation 2.919282243144154 %", "value": 17, "unit": "%"}]}, {"smiles": "O=Cc1ccc(N2CCC(C(=O)N3CCN(c4ncc(C(F)(F)F)cc4Cl)CC3)CC2)cc1", "values": [{"measurement": "inhibition", "setting": "[1]", "value": -1.15, "unit": "%"}]}, {"smiles": "Cc1cc(CO)c2cccc(Cc3cccc(C(=O)N(c4ncccn4)S(=O)(=O)c4ccc(N)cc4)c3)c2n1", "values": [{"measurement": "inhibition", "setting": "Thailand/16681/1984, Concentration 49.95 uM, Number of replicates 2.0, Standard deviation 1.2554851591331873 %", "value": 27.5, "unit": "%"}, {"measurement": "inhibition", "setting": "Thailand/16681/1984, Concentration 99.9 uM, Number of replicates 2.0, Standard deviation 1.7606970720097574 %", "value": 55.5, "unit": "%"}]}, {"smiles": "Cn1nccc1NS(=O)(=O)c1ccc(Oc2ccccc2)cc1", "values": [{"measurement": "inhibition", "setting": "Thailand/16681/1984, Concentration 49.5 uM, Number of replicates 2.0, Standard deviation 3.5994263366391306 %", "value": -1.13, "unit": "%"}, {"measurement": "inhibition", "setting": "Thailand/16681/1984, Concentration 99.01 uM, Number of replicates 2.0, Standard deviation 3.358089435968294 %", "value": -0.763, "unit": "%"}, {"measurement": "inhibition", "setting": "Thailand/16681/1984, Concentration 198.0 uM, Number of replicates 2.0, Standard deviation 3.347260224711905 %", "value": 0.891, "unit": "%"}]}, {"smiles": "O=Cc1ccc(N2CCC(C(=O)N3CCC(Oc4ccccc4C(F)(F)F)CC3)CC2)cc1", "values": [{"measurement": "inhibition", "setting": "[1]", "value": 2.31, "unit": "%"}]}]}
